# Measurements published in PubChem BioAssay AID686978 (National Center for Advancing Translational Sciences (NCATS), 2013).
# Among all 420,000 compounds or so, about 64,000 (15%) were called active. Inconclusive means that the source gave no clear call. Such entries were picked first, then a sample of the others. Calls follow the shape of the dose curve; as a rule, active = well fitted inhibition curve with a large enough effect; inconclusive = small, poorly fitted or top-dose-only effect; inactive = flat fitted curve, though single readings scatter. Potencies of inconclusive entries are left out as doubtful fits.
# Assay: qHTS for Inhibitors of human tyrosyl-DNA phosphodiesterase 1 (TDP1): qHTS in cells in absence of CPT; also: nearly all actives have a fitted effect of over 55% in size
# Settings: DT40 Tdp1-/- hTDP1 cells, no CPT, ATP luminescence, 48 h; activity change, negative = growth inhibition: at 46.2 µM (top of the series) unless noted
# Method in brief: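 No-CPT arm: Tdp1-/-;hTDP1 DT40 cells (400/well) plus compounds, incubated ≥48 hr at 37 °C. Readout CellTiter-Glo luminescence.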
# % is scaled to controls: 0 for no effect and ±100 for the full control effect; potency is read from the fitted curve at half-maximal effect; tags tell the direction and shape of the fitted curve.
Structure (SMILES),"activity change, negative = growth inhibition",Potency
COc1ccc(Cc2nnc(SCC(=O)c3cccc([N+](=O)[O-])c3)n2C)cc1,inactive: -20.5%,
CCCCC(=NCCc1c(C)[nH]c2ccc(OC)cc12)C1=C(O)CC(c2ccccc2)CC1=O (centres undefined),,active: 4.11 µM
CCOC(=O)C1(Cc2cccc(OC)c2)CCCN(Cc2cc(C(C)C)n[nH]2)C1 (centres undefined),,"inconclusive [inhibitor, single point]"
CN(C)CCCn1c(=O)n(Cc2ccco2)c(=O)c2c3c(sc21)CCCCC3,,"inconclusive [inhibitor, single point]"
COc1ccc(-c2cn(-c3ccc(OC)cc3)c3[n+]2-c2ccccc2CC3)cc1,,active: 0.206 µM
COc1ccc(-c2ccnc3nc(N4CCN(c5ccccc5)CC4)nn23)cc1,,active: 20.6 µM
O=C(Nc1cccc(-c2nc3ncccc3o2)c1)c1ccc2c(c1)OCO2,inactive: -7.2%,
Cc1cccc(OCC(=O)N(Cc2ccccc2)c2c(N)n(Cc3ccccc3)c(=O)[nH]c2=O)c1,,"inconclusive [inhibitor, single point]"
O=S(=O)(c1ccccc1)N1CCC2(CC1)CN(c1ccncc1)C2,,active: 9.2 µM
Cc1ccc(C(=O)NC(=S)Nc2ccc(CN3CCCCC3)cc2)c(C)c1,,"inconclusive [inhibitor, single point]"
Cc1nnc(SCC(=O)N(Cc2ccccc2)C(C)C)n1-c1ccccc1,,"inconclusive [inhibitor, partial curve]"
Brc1cc2ccccc2[n+](Cc2ccccc2)c1,,active: 11.6 µM
Cc1ccc(NS(=O)(=O)c2cccc(C(=O)NNC(=O)c3cccn3C)c2)c(C)c1,inactive: -23.4%,
CC(C)C(=O)NC(=S)Nc1ccc(S(=O)(=O)N(C)Cc2ccccc2)cc1,,active: 18.4 µM
CCCNC(=O)C1(C)CCCN(C(=O)c2cc(C)n(C(C)(C)C)n2)C1 (centres undefined),,"inconclusive [inhibitor, partial curve]"
COc1ccc(C2Nc3ccccc3C(=O)N2Cc2ccco2)cc1 (centres undefined),,active: 12.6 µM
CCOC(=O)c1nc(C)nc(Sc2n[nH]c(-c3ccc(C(C)(C)C)cc3)n2)c1C,,active: 18.4 µM
COc1ccccc1-n1cnnc1SCC(=O)NC1CCCC1,inactive: -3.07%,
Cc1ccc(-c2noc(CCC(=O)NCCN3CCN(Cc4ccccc4)CC3)n2)cc1,,active: 18.4 µM
Cc1ccc(N(CC(=O)Nc2ccc(Br)c(C)c2)S(=O)(=O)c2c(C)[nH]c(=O)[nH]c2=O)cc1,inactive: 15.2%,
Cc1ccc(S(=O)(=O)NCCC(c2ccccc2)c2ccccc2)cc1C(=O)O,inactive: -15.3%,
COC(=O)/C=C/c1cccc([C@H]2[C@@H]3C=CC[C@@H](C)[C@@H]3C(=O)N2Cc2ccccc2)c1,,active: 16.4 µM
COc1ccc(/C=C2/CCCc3ccccc3C2=O)cc1,,active: 5.8 µM
S=C(Nc1ccc(OCc2ccccc2)cc1)Nc1cccc(Cl)c1Cl,,"inconclusive [inhibitor, single point]"
O=Cc1ccnc(-c2ccc(OC(=O)c3ccco3)cc2)n1,,active: 5.8 µM

Structure (SMILES),"activity change, negative = growth inhibition",Potency
CCCS(=O)(=O)N1CCC(CCOc2ccccc2)(C(=O)OCC)CC1,,"inconclusive [inhibitor, partial curve]"
CCOc1ccc(CN(C)CC(=O)Nc2cccc3ccccc23)cc1OC,,"inconclusive [inhibitor, single point]"
Cc1ccc(S(=O)(=O)NNC(=O)c2cc([N+](=O)[O-])c(C)c([N+](=O)[O-])c2)cc1,inactive: -19.8%,
Cn1c(=O)n(Cc2ccccc2)c(=O)c2c1nc1n2CCCN1Cc1ccccc1,,"inconclusive [inhibitor, single point]"
O=C(CCC1CCN(C(=O)CC2=CCCCC2)CC1)NCc1ccc(F)cc1,,"inconclusive [inhibitor, single point]"
CN1CCC(OC(=O)c2cc3cc(Br)ccc3oc2=O)CC1,inactive: -5.17%,
O=C1N(c2ccc(Cl)c(Cl)c2)CN(Cc2ccccc2)CN1n1cnnc1,,"inconclusive [inhibitor, partial curve]"
CC(C)CCn1c(S(=O)(=O)O)nc2ccccc21,inactive: -3.31%,
Cc1cc(C(=O)NCCc2ccc(Cl)cc2)c2c(C)nn(-c3cccc(F)c3)c2n1,inactive: -21.5%,
COc1ccc(CN(C)CC(=O)Nc2cccc(S(=O)(=O)N(C)c3ccccc3)c2)c(OC)c1,,"inconclusive [inhibitor, single point]"
CCc1nc(Nc2ccncc2)c2oc3ccccc3c2n1,,active: 2.31 µM
O=C(Nc1ccc(S(=O)(=O)Nc2ccc(Cl)cc2)cc1)C1CCCO1 (centres undefined),,active: 12.6 µM
O=C1C2C(C(=O)N1/N=C/c1ccc(N3CCCCC3)o1)C1C=CC2C12CC2 (centres undefined),,active: 14.6 µM
O=C(C1CCCN(S(=O)(=O)c2cccc3cccnc23)C1)N1CCc2ccccc21 (centres undefined),,active: 16.4 µM
COc1ccc(-n2c(CN3CCN(c4ccc(F)cc4)CC3)nc3ccc([N+](=O)[O-])cc3c2=O)c(OC)c1,,"inconclusive [inhibitor, partial curve, poor fit]"
CCC1(c2cccc(Cl)c2)NC(=O)N(Cc2cc(C(=O)OC)c(C)o2)C1=O (centres undefined),,active: 18.4 µM
CCc1cccc(C)c1NC(=O)c1cccnc1,inactive: -5.38%,
O=C(CCC1CCCN(C(=O)Cc2ccc(F)cc2)C1)N1CCN(c2ccccn2)CC1 (centres undefined),,"inconclusive [inhibitor, single point]"
CCC(C)(C)NC(=O)c1ccc(S(=O)(=O)N(C)c2ccccc2OC)cc1,inactive: -10.6%,
CCOC(=O)C1(Cc2cccc(OC)c2)CCCN(C(=O)CSC)C1 (centres undefined),,"inconclusive [inhibitor, partial curve]"
CCCCCCSc1ccc([C@H]2N[C@@](CC(C)C)(C(=O)OC)[C@H]3C(=O)N(C)C(=O)[C@@H]23)cc1,,"inconclusive [inhibitor, single point]"
C=CCNc1nc(C(F)(F)F)nc2c1nnn2Cc1ccccc1Cl,,"inconclusive [inhibitor, single point]"
CC1CCN(C(=O)CSc2ccc(-c3ccc(F)cc3)nn2)CC1,,"inconclusive [inhibitor, partial curve]"
COc1ccc(N(CC(=O)NCCc2cccc(C)c2)S(=O)(=O)c2c(C)noc2C)cc1,,active: 18.4 µM
COc1ccc(-n2c(C)cc(C(=O)CN3CCCCC3)c2C)cc1,,"inconclusive [inhibitor, single point]"

Structure (SMILES),"activity change, negative = growth inhibition",Potency
CCc1ccc(CNc2ccc3c(c2)ncn3C)cc1,inconclusive: -30.3% [inhibitor],
Nc1ncccc1OCc1cccc(C(F)(F)F)c1,,active: 6.51 µM
COc1cccc(NC(=O)CN(C)C(=O)c2ccc(COc3ccccc3)o2)c1,,"inconclusive [inhibitor, single point]"
Nc1c(C(=O)NC2CCCC2)c2nc3ccccc3nc2n1/N=C/c1ccco1,inactive: -28.1%,
O=C(Nc1ccccc1)c1ccc2c(c1)OCCO2,inactive: -17.1%,
Cc1ccc(NC(=O)CN(C)c2ccc(S(=O)(=O)N3CCCC3)cn2)cc1,,"inconclusive [inhibitor, single point]"
CC(Cc1ccccc1)C(=O)N(C)Cc1cccnc1 (centres undefined),inactive: -5.09%,
CC1CCN(CC(=O)Nc2nc(-c3ccccc3)cs2)CC1,,"inconclusive [inhibitor, single point]"
COc1ccc(N=Nc2ccc3ccccc3c2)c(O)c1,,"inconclusive [inhibitor, single point]"
COc1ccccc1N1CCN(C(=O)c2cc(C3CC3)on2)CC1,,"inconclusive [inhibitor, single point]"
COc1ccc(C)cc1NC(=O)C(=O)NCC1(c2ccccc2)CCCC1,,"inconclusive [inhibitor, single point]"
O=C(O)C1CCN(C(=O)CSc2nc3ccccc3c(=O)n2Cc2ccccc2)CC1,inactive: -26%,
O=C(Nc1nnc(S(=O)(=O)N2CCN(c3ccc(F)cc3)CC2)s1)c1ccc(Cl)cc1,inactive: -23.5%,
CCC(=O)Oc1cccc(C(=O)Nc2cccc(NC(=O)c3ccco3)c2)c1,inactive: -15.7%,
Cc1ccc(Cl)cc1NC(=O)COCc1cc(-c2ccco2)on1,,"inconclusive [inhibitor, single point]"
Cc1ccccc1-c1cnn(-c2cccc([N+](=O)[O-])c2)c1N,,"inconclusive [inhibitor, single point]"
CCn1c(SCC(=O)NCC2CCCO2)nnc1-c1c[nH]c2ccccc12 (centres undefined),inconclusive: -30.3% [inhibitor],
CCCC(c1nnnn1Cc1ccco1)N1CCN(c2cc(Cl)ccc2C)CC1 (centres undefined),,"inconclusive [inhibitor, single point]"
O=C1CCC/C(=N\NC(=O)COc2ccc(Cl)cc2)C1,inactive: -15.3%,
C[C@H]1CN([C@@H](C)CO)C(=O)CCCn2nncc2CO[C@H]1CN(C)C(=O)C1CC1,inconclusive: -30.6% [inhibitor],
CC(=O)Nc1cc(-c2ccc(C(=O)N3CCOCC3)cc2)cn2c(-c3cccc(C(F)(F)F)c3)cnc12,,active: 14.6 µM
CC(C)(C)c1ccc(C2NC(=O)c3n[nH]c(-c4cccs4)c32)cc1 (centres undefined),,"inconclusive [inhibitor, single point]"
O=S(=O)(c1cc(Cl)cc(Cl)c1)N1CCC2CC1c1cc(Cl)ccc12 (centres undefined),,"inconclusive [inhibitor, single point]"
CCc1ccc(CN(C)Cc2c(C(=O)N3CCOCC3)nc3c(C)cccn23)nc1,,"inconclusive [inhibitor, single point]"
